Experimental findings from the RNAGym collection of RNA variant scans (doi:10.1093/nar/gkz1192) are described below.

B1: CPEB3 Ribozyme (parent)
chain: UAACAGGGGGCCACAGCAGAAGCGUUCACGUCGCAGCCCCUGUCAGAUUCUGGUGAAUCUGCGAAUUCUGCUGUAUAUCUC

Read counts are not given, so values of variants with three or more changes are uncertain.

The variants in the series derive from B1. In words: self-cleavage, relative activity (ratio to wild type); higher = more cleavage; in vitro, sequencing. The essentials:
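Relative activity compares each variant's cleaved/total read fraction with that of the unmutated ribozyme. To get these fractions, barcoded CPEB3 ribozyme libraries from rounds of error-prone PCR were transcribed with T7 RNA polymerase for 5 hours at 37°C and then given 15 min of DNase I treatment before EDTA was added. The RNAs were reverse transcribed with template switching and sequenced on Illumina, and DNA sequencing linked barcodes to variants. A minimum of 5 reads applied, and three batches were averaged.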
UAACAGGGGGCCACAGCAAAAGCGUUCACGUCGCAGCCCCUGUCAGUUUCUGGUGACUCUGCGUAUUCUGCUGUAUAUCUC: the self-cleavage is 0.08.

With UAACAGGGGGCCACAGCAAACGCGUUCACGUCGCAGCCUCUGUCAGAUUCUGGUGAAUCUGCGAAUUCUGCUGUAUAUCUC, the self-cleavage was found to be 0.05.

As for UAACAGGGGGCCACAGCUGAAGCGUUCACGUCGCAGCCCCUGUCAGAUUCUGGUGAAUCCGCGAAUUCUGCUGUAUAUCCC, the self-cleavage stood at 0.24.

As to UAACAGGGGGCCACAGCAAAAGCGUUCACGUCGCAGCCCCUGUCAGAUUCUGGUGAAUCUGCGGAUUCUGCUGUAUACCUC, the self-cleavage worked out at 0.4.

For UAACAGGGGGCCACAGCAAAAGCGCUCACGUCGCAGCCCCUGUCAGAUUCUGGUGAAUCUGCGUAUUCUGCAGUAUACCUC, the self-cleavage is 0.03.

Take UAACAGGGGGCCACAGCAAGAGCGUUCACGUCGCAGCCCCUGUCAGAUUCUGGUGAAUCUGCGAAUUCUGCUGUAGAUAUC: the self-cleavage came out at 0.49.

Consider UAACAGGGGGCCACAGCAAUAGCGUUCACGUCGCAGCCCCUGUCAGAUUCUGGUGAAUCUGCGAAUUCUGCUGUAUAUCAC, for which the self-cleavage is 0.26.

Regarding UAACAGGGGGCCACAGCAAAUGCGUUCACGUCGCAGCCCCUGCCAGAUUCUGGCUAAUCUGCGAGUACUGCUGUAUAUCUC, the self-cleavage came out at 0.05.

Turning to UAACAGGGGGCCACAGCAAUAGCGUUCACGUCGCAGCCCCUGUCAGAGUCUGGUGAAUCUGCGAAUUCUGCUGUAUAUCUC, the self-cleavage was 0.27.

For UAACAGGGGGCCACAGCAAAAGCGUUCCCAUCGCAGCCCCAGUCAGAUUCUGGGGAAUCUGCGAAUUCUGCCGUUUAUCUC, the self-cleavage worked out at 0.05.

Consider UAACAGGGGGCCACAGCUGAAGCGUUCACGUCGCAGCCCCUGUCAGAUUCUGGUGAAUCUGCGAAUUCUGCUGAGUAUCUC, for which the self-cleavage amounted to 0.45.

With UAACAGGGGGCCACAGCUGAAGCGUUCACGUCGCAGCCCCUGUCAGAUUCUGGUGAAUCUGCGAAUACUGCUGUAUAUCAC, the self-cleavage is 0.19.

For UAACAGGGGGCCACAGCAAAAGCGUUCACGUCGCUGCCCCUGUCAGAUUCUGGUGAAUCUGCGAAUUCUGGUGUAUAUCUC, the self-cleavage came out at 0.11.

Turning to UAACAGGGGGCCACAGCAAAGGCGUUCACGUCGCAGCCCCUGUCAGAUUCUGGCGUAUCUGCGAAUUCUGCUGUAUAUCUC, the self-cleavage was determined as 0.08.

For UAACAGGGGGCCACAGCAAAAGCGUUCACGUCGCAGCCCCUGUCAGGUUCUGGAGAAUCUGCGAAUCCUGCUGUAUAUCUA, the self-cleavage stood at 0.04.

Regarding UAACAGGGGGCCACAGCAAAAGCGUUCACGUCGCGGCCCCUGUCAAAUUCUGGUGAAUCUGCGAAUUCUGCUGUACAUCUC, the self-cleavage is 0.13.

Consider UAACAGGGGGCCACAGCAAGAGCGUUCACGUCGCAGCCCCUGUCAGAUUCUGGAGAAUCUGCGAAUUCUGCUGUAUAUCUC, for which the self-cleavage is 0.4.

For UAACAGGGGGCCACAGCAAAAGCGAUCACGUCGCACCCCCUGUCAGAUUCGGGUGAAUCUGCGAACUCUGCUGUAUAUCUC, the self-cleavage is 0.05.

Take UAACAGGGGGCCACAGCAAAGGCGUUCACGUCGCAGCCCCUGUCAGAUUCUGGUGAAUCUGCGAAUUCUGCUGUAUAUAUC: the self-cleavage amounted to 0.35.

In the case of UAACAGGGGGCCACAGCAAAAGCGUUCACGUCGCAGCCCCUGUCGGAUUCUGGUGAAUCCGCGAAGUCCGCUGUAUAUCUC, the self-cleavage was 0.08.

For UAACAGGGGGCCACAGCAAAAGCGUUCGCGUCGCAGCCCCUGACAGAUUCUGGUGAAUCUGCGAGUUCUGCUGUAUAUCCC, the self-cleavage was determined as 0.17.

Take UAACAGGGGGCCACAGCAAAAGCGACCACGUCGCAGCCCCUGUCAGAUUCUGGUGAAUCUGCGGAUUCUGCUGUAUAUCUC: the self-cleavage was determined as 0.11.

Take UAACAGGGGGCCACAGCUGAAGCGUUCACGUCGCAGCCCCUGUCAGAUUCUGGCGAAUCUGCGAAUUCUGCUGUAUACCUC: the self-cleavage worked out at 0.32.

Turning to UAACAGGGGGCCACAGCUGAAGCGUUCACGUCGCAGCCCCUGUCAGAUUCUGGCGAAUAUGCGAAUUCUGCUGUAUAUCUC, the self-cleavage was 0.13.

With UAACAGGGGGCCACAGCAAGAGCGUUCAUGUCGCAGCCCCUGUCAGAUUCUGGAGAAUCUGCGAAUUCUGCUGUAUAUCUC, the self-cleavage turned out to be 0.05.

Take UAACAGGGGGCCACAGCUGAAGCGUUCACGUCGCAGCCCCUGUCAGAUUCUGGUGAAUCUGCGAAUUCUGCAGCAUAUCUC: the self-cleavage came out at 0.32.

As for UAACAGGGGGCCACAGCUGAAGCGUUCACGUCGCAGCCCCUGUCAGAUUCUGGUGAAUCUGCGAAAUCUGCUGUUUAUCUC, the self-cleavage came out at 0.24.

Turning to UAACAGGGGGCCACAGCAAAAGCGUUCACGUCGCAGCCCGUGUCAGAUUCUGGUGAGUCGGAGAAUUCUGCCGUAUAUCUC, the self-cleavage was 0.07.

UAACAGGGGGCCACAGCAAGAGCGUUCACGUCGCAGCCCCUGUCAGAUUCUGGCUAAACCGCGAAUUCUGCUGUAUAUCUC: the self-cleavage is 0.08.

In the case of UAACAGGGGGCCACAGCUGAAGCGUUCACGUCGCAGCCCCUGUCAGAUUCUGGUGAAUCUGCGAAUACUGCUGUACAUCUC, the self-cleavage was determined as 0.29.

In the case of UAACAGGGGGCCACAGCUGAAGCGUUCACGUCGCAGCCCCUGUCAGAUUCUGGCGAAUCUGCGAAUUCUGCUGUAUUCCUC, the self-cleavage was found to be 0.21.

In the case of UAACAGGGGGCCACAGCUGAAGCGUUCACGUCGCAGCCCCUGUCAGAUUCUGGUGAAUCCGCGAGUUCUGCUGUAUAUCUC, the self-cleavage came to 0.18.

Take UAACAGGGGGCCACAGCUGAAGCGUUCACGUCGCAGCCCCUGUCAGAUUCUGGUGAAACUGCGAAUUCUGCUGUAUACCUC: the self-cleavage is 0.21.

Take UAACAGGGGGCCACAGCUGAAGCGUUCACGUCGCAGCCCCUGUCAGAUUCUGGGGAGUCUGCGUAUUCUGCUGUAUAUCUC: the self-cleavage turned out to be 0.16.
